The source gives no read counts; variants with many changes may rest on few reads.
B1: CPEB3 Ribozyme (parent)
chain: UAACAGGGGGCCACAGCAGAAGCGUUCACGUCGCAGCCCCUGUCAGAUUCUGGUGAAUCUGCGAAUUCUGCUGUAUAUCUC

Variants of: B1
Assay: self-cleavage, relative activity (ratio to wild type); higher = more cleavage; in vitro, sequencing
Procedure, shortened: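 Libraries of CPEB3 self-cleaving ribozyme mutants came from rounds of error-prone PCR and carried barcodes, which DNA sequencing matched to variants. In vitro transcription used T7 RNA polymerase at 37°C for 5 hours, with a further 15 min in DNase I before EDTA stopped the reaction; the ribozymes cleaved during both steps. The RNA was reverse transcribed with template switching and sequenced on Illumina. Relative activity is the cleaved/total read fraction of a variant divided by that of the unmutated ribozyme, averaged over three batches with at least 5 reads.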

Question: Which self-cleavage does the source give for UAACAGGGGGUCACAGCGGAAGAGUCCACGUUGCAGCCCCUGUCAGAUUCUGGUGAAUCUGCGAGUUCUGCUGUAUAUCUC [C11U A18G C23A U26C C32U A65G] here?
Answer: Its self-cleavage is 0.14.

Question: Which self-cleavage does the source give for UAACAGGGGGUCACAGCGGAAGCGCUCACGUCGCAGCCCCUGUCAUAUUCUGCUGAAUCCGCGAAUUCUGCUGUAUAUCUC [C11U A18G U25C G46U G53C U60C] here?
Answer: Its self-cleavage is 0.04.

Question: Which self-cleavage does the source give for UAACAGGGGGUCACAGCGGAAGCGUUCACGUCGCAGCCCCUGUCAGAUUCAGGUGAAUCUGCGAAUUCUGCUGUAUGUCUC [C11U A18G U51A A77G] here?
Answer: The self-cleavage was 0.18.

Question: With UAACAGGGGGUCACAGCUGAAGCGUUCACGUCGCAGCCCCUGUCAGAUUCUGGUGGAUCUGGGAAUUCUGCUGUAUAUCUC [C11U A18U A56G C62G] as the variant, how does the self-cleavage read?
Answer: Its self-cleavage is 0.12.

Question: With UAACAGGGGGUCACAGCUGAAGCGUUCACGUCGCAGCCCCAGUCAGAUUCUGGUGAAUCUGCGAAUUCUGCUGUAUAUCUC [C11U A18U U41A] as the variant, how does the self-cleavage read?
Answer: The self-cleavage was 0.07.

Question: With UAACAGGGGGUCACAGCAGGGGCGUUCACGUCGCAGCCCCUGUCAGAUUCUGGUGAAUCUGCGAAUUCUGCUGUAUAUCUC [C11U A20G A21G] as the variant, how does the self-cleavage read?
Answer: Its self-cleavage is 0.36.

Question: For UAACAGGGGGUCACAGCAGGGGCGUUCACGUCGCAGCCCCUGUCAGAUUCCGGUGAAUCUGCGAACUCUGCUGUAUGUCUC [C11U A20G A21G U51C U66C A77G], which self-cleavage is on record?
Answer: The self-cleavage was 0.05.

Question: For UAACAGGGGGUCACAGCAGGAGCGUUCGCGUCGCAGCCCCUGUCAGAUUCUGGUGAAUCUGCGAAUUCUGCUGUAUACCUC [C11U A20G A28G U78C], which self-cleavage is on record?
Answer: Its self-cleavage is 0.34.

Question: For UAACAGGGGGUCACAGCAGGAGCGUUCACGUCGCAGCCCCUGUCUGAUUCUGGUGAAUCUGCGAAUUCUGCUGUAUAUCCC [C11U A20G A45U U80C], which self-cleavage is on record?
Answer: Its self-cleavage is 0.35.

Question: For UAACAGGGGGUCACAGCAGGAGCGUUCACGUCGCAGCCCCUGUCAGGUUCUGGUGGAUCUGCGAAUUCUGAUGUAUAUCUC [C11U A20G A47G A56G C71A], which self-cleavage is on record?
Answer: Its self-cleavage is 0.06.

Question: Which self-cleavage does the source give for UAACAGGGGGUCACAGCAGGAGCGUUCACUUCGCAGUCCCUGUCUGACUCUGGUGAAUCUGCGAACUCUGCUGUAUAUCUC [C11U A20G G30U C37U A45U U48C U66C] here?
Answer: The self-cleavage was 0.05.

Question: Which self-cleavage does the source give for UAACAGGGGGUCACAGCAGGAGCGUCCACGUCGCGGCCCCUGUCAUAUUCUGGUGAAUCUGCGAAGUCUGCUGUAUAUCUC [C11U A20G U26C A35G G46U U66G] here?
Answer: Its self-cleavage is 0.09.

Question: Which self-cleavage does the source give for UAACAGGGGGUCACAGCAGUAGCCUUCACGUCGCAGCCCCUGCCAGAUUCUGGUGAAUCUGCGAAUUCUGCCGUAUAUCUC [C11U A20U G24C U43C U72C] here?
Answer: The self-cleavage was 0.21.

Question: With UAACAGGGGGUCACAGCAGUAGCGUUCACGUCGCAGCCCCUGUCAGAUUCUGGUGAAUCUGCGAAUUCUGCUUUAUAUCUC [C11U A20U G73U] as the variant, how does the self-cleavage read?
Answer: Its self-cleavage is 0.1.

Question: For UAACAGGGGGUCACAGCAGAGGCGUUCACGUCGCAGUCCCUGUCAGAUUCUGGUGAAUCUGCGAAUUCUGCCGUAUAUCUC [C11U A21G C37U U72C], which self-cleavage is on record?
Answer: Its self-cleavage is 0.18.

Question: For UAACAGGGGGUCACAGCAGAGGCGUUCACGUCGCAGCUCCUGUCAGAUUCUGGUGAAUCUGCGAAUUCUGCUGUAUAUCUC [C11U A21G C38U], which self-cleavage is on record?
Answer: Its self-cleavage is 0.09.

Question: With UAACAGGGGGUCACAGCAGAGGCAUUCACGCCGCAGCCCCUGCCGGAUUCUGGUGAAUCUGCGAAUUCUGCUGUAUAUCUC [C11U A21G G24A U31C U43C A45G] as the variant, how does the self-cleavage read?
Answer: Its self-cleavage is 0.26.

Question: With UAACAGGGGGUCACAGCAGAGGCGAUCUCGUCGCAGCCCCUGCCAGAUUCUGGUGGAUCUGCAAAUUCUGCUGUAUAUCUC [C11U A21G U25A A28U U43C A56G G63A] as the variant, how does the self-cleavage read?
Answer: The self-cleavage was 0.07.

Question: With UAACAGGGGGUCACAGCAGAGGCGUUCACGUCGCAGCCCCUGUCAGAUUCCGGUGAAUCUGCGAAUUCUGCUGUAUAUCUC [C11U A21G U51C] as the variant, how does the self-cleavage read?
Answer: Its self-cleavage is 0.28.

Question: Which self-cleavage does the source give for UAACAGGGGGUCACAGCAGAUGCGUUCACGUCGCAGCCCCUGUCAGAUUCUGGUGAAUCUACGAAUUCUGCUGUAUAUCUC [C11U A21U G61A] here?
Answer: The self-cleavage was 0.06.

Question: For UAACAGGGGGUCACAGCAGAUGCGUACACGUCGCAGCCCCUGUCAGAUACUGGGGAAUCUGCGAGUUCUGCUGUAUAUCUC [C11U A21U U26A U49A U54G A65G], which self-cleavage is on record?
Answer: Its self-cleavage is 0.1.

Question: For UAACAGGGGGUCACAGCAGAAGCGUUCGCGUCGCUGCCCCUGUCAGAUUCUGGUGAAUCUGCGGAUUCCGCUGUAUAUCUC [C11U A28G A35U A64G U69C], which self-cleavage is on record?
Answer: The self-cleavage was 0.03.

Question: With UAACAGGGGGUCACAGCAGAAGCGUUCGCGUCGCAGCCCCUGUCAGAUUCUGGUGGAUCUGCGAAUUCUGCUGUAUAUCUC [C11U A28G A56G] as the variant, how does the self-cleavage read?
Answer: Its self-cleavage is 0.25.

Question: Which self-cleavage does the source give for UAACAGGGGGUCACAGCAGAAGCGUUCGCAUCGCAGCCCCUGUCAGAUUCUGGUGAAUCUGCGAAUUCUGCUGUAUAUCUC [C11U A28G G30A] here?
Answer: The self-cleavage was 0.18.

Question: For UAACAGGGGGUCACAGCAGAAGCGUUCGCGUCACAGCCCCUGUCAGAUUCUGGUGAAUCUGCGAAUUCUGCUGUAUAUCUC [C11U A28G G33A], which self-cleavage is on record?
Answer: Its self-cleavage is 0.05.

Question: With UAACAGGGGGUCACAGCAGAAGCGUUCGCGUCGCAGCCCCAGUCAGAUUCUGGUGAAUCUGCGAAUUCUGCUGUAUAUCCC [C11U A28G U41A U80C] as the variant, how does the self-cleavage read?
Answer: The self-cleavage was 0.22.

Question: With UAACAGGGGGUCACAGCAGAAGCGUUCGCGUCGCAGCCCCUGCCAGAUUCUGGUGGAUCUGCGGAUUCUGCUGUAUGUCUC [C11U A28G U43C A56G A64G A77G] as the variant, how does the self-cleavage read?
Answer: Its self-cleavage is 0.02.

Question: With UAACAGGGGGUCACAGCAGAAGCGUUCGCGUCGCAGCCCCUGUCAGAUUCUGGCGAAUCUGCGAAUUCUGCUGUAUAUCUC [C11U A28G U54C] as the variant, how does the self-cleavage read?
Answer: The self-cleavage was 0.11.

Question: Which self-cleavage does the source give for UAACAGGGGGUCACAGCAGAAGCGUUCUCGUCGCAGCCCCCGUCAGGUUCUGGUGAGUCUGCGAAUUCUGCUGUAUAUCUU [C11U A28U U41C A47G A57G C81U] here?
Answer: The self-cleavage was 0.07.

Question: For UAACAGGGGGUCACAGCAGAAGCGUUCUCGUCGCAGCCCCUGUCAGAUUCUGGUGAAUCUGCGAAUUCAGCCGUAUAUCUC [C11U A28U U69A U72C], which self-cleavage is on record?
Answer: Its self-cleavage is 0.07.

Question: For UAACAGGGGGUCACAGCAGAAGCGUUCACGUCGCGGCCCCUGUCGGAUUCUGGUGGAUCUGCGGAUUCUGCUGUAUAUCUC [C11U A35G A45G A56G A64G], which self-cleavage is on record?
Answer: Its self-cleavage is 0.91.

Question: For UAACAGGGGGUCACAGCAGAAGCGUUCACGUCGCGGCCCCUGUCGGAUUCUGGAGAAUCUGCGAAUUCUGCUGUCUAUCUC [C11U A35G A45G U54A A75C], which self-cleavage is on record?
Answer: Its self-cleavage is 1.29.

Question: With UAACAGGGGGUCACAGCAGAAGCGUUCACGUCGCGGCCCCUGCCAGAUUCUGGUGGAUCUGCGAAUUCUGCUGUAUAUCUC [C11U A35G U43C A56G] as the variant, how does the self-cleavage read?
Answer: The self-cleavage was 0.95.

Question: Which self-cleavage does the source give for UAACAGGGGGUCACAGCAGAAGCGUUCACGUCGCGGCCCCUGCCAGAUUCUGGCGAAUCAGCGAAUUCUGCUGUAUACCUC [C11U A35G U43C U54C U60A U78C] here?
Answer: The self-cleavage was 0.06.

Reference: the RNAGym collection of RNA variant scans (doi:10.1093/nar/gkz1192)
